Measured values: PubChem BioAssay AID624417 (National Center for Advancing Translational Sciences (NCATS), 2012)
The whole screen tested about 410,000 compounds, of which about 6,400 (1.6%) were called active. This list was built around the results that the source calls inconclusive (neither active nor inactive); the mix of calls is not that of the screen. Calls follow the shape of the dose curve; as a rule, active = well fitted inhibition curve with a large enough effect; inconclusive = small, poorly fitted or top-dose-only effect; inactive = no such curve, though single readings can be large or run the other way. No potency is given beside an inconclusive call; the fits are too rough.
% is scaled to controls: 0 for no effect and ±100 for the full control effect; potency is read from the fitted curve at half-maximal effect; tags tell the direction and shape of the fitted curve.
Also: nearly all actives have a fitted effect of over 55% in size.

What follows are compounds tested against Glucagon-like peptide 1 receptor (Homo sapiens) (UniProt P43220) (assay: qHTS of GLP-1 Receptor Inverse Agonists (Inhibition Mode)). Conditions: HEK293 GLP-1R CRE-luciferase, luminescence, 24 h, GLP-1R form is constitutively active; activity change, negative = inhibition: at 38.3 µM (top of the series) unless noted.
Sequence of UniProt P43220 (P43220 whole entry, looked up): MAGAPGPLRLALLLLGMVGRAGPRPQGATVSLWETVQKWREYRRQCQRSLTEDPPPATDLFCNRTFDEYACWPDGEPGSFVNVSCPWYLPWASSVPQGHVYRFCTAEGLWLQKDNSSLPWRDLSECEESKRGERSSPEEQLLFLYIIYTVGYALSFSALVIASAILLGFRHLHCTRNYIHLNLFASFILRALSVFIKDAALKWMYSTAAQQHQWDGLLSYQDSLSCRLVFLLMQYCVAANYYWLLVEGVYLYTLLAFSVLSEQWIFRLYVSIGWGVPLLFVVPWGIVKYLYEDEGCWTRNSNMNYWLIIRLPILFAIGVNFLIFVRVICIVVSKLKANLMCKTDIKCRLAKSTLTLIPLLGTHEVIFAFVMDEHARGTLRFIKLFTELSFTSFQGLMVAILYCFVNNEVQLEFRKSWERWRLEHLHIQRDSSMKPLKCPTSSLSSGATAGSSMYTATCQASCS
How it was run: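 Luminescence readout: a drop in cAMP-driven luciferase signal flags inverse agonism at a constitutively active GLP-1R stably expressed in HEK293. Compound exposure lasted 24 hr at 37 deg C, 5% CO2.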
With `Cc1ccccc1CN1C(=O)c2ccccc2Sc2ccc(C(=O)NC(C)c3ccccc3)cc21` (stereo not drawn) the Potency was “inactive”. `COc1ccc(NC(=O)CC2C(=O)N(c3ccc(F)cc3)C(=O)N2Cc2ccco2)cc1` (stereo not drawn) was tested, and the Potency was “inactive”. With `CC(C)(C)c1ccc(C(=O)Nc2ccc(C=C(C#N)C#N)cc2)cc1` the Potency was inconclusive [inhibitor, partial curve, poor fit]. `CCOC(=O)[C@]12CCC=C1N(Cc1ccc(Cl)cc1Cl)C(=O)[C@H](CC(=O)N1CCC(c3ccccc3)CC1)C2` was tested, and the Potency was inconclusive [inhibitor, single point]. In the case of `CN(CC(=O)Nc1cccc(F)c1)CC(=O)Nc1ccccc1Oc1ccccc1`, the Potency is reported as inconclusive [inhibitor, partial curve, poor fit]. For `CC(C)CCN1C(=O)CSCC1(C)C(=O)NC(C)C` (stereo not drawn), the Potency was “inactive”. In the case of `COc1cc(CN2CCN(Cc3c[nH]c4ccccc34)CC2CCO)cc(OC)c1` (stereo not drawn), the Potency is reported as inconclusive [inhibitor, partial curve, poor fit]. `CC(C)c1ccc(NC2CCCN(C(=O)CCN3CCCO3)C2)cc1` (stereo not drawn) was tested, and the Potency was “inactive”. `Cc1c(-c2ccc(Br)cc2)nc2ccccn12` was tested, and the Potency was “inactive”. With `Cc1ccc(C)c(S(=O)(=O)N2CCN(C(=O)CCC(=O)NCc3ccc(Cl)cc3)CC2)c1` the Potency was inconclusive [inhibitor, single point]. With `Cc1cc2c(cc1C)N(C(=O)CN1C(=O)c3ccccc3C1=O)C(C)(C)c1ssc(=S)c1-2` the Potency was inconclusive [inhibitor, partial curve, poor fit]. With `CCOc1ccc(C2C([N+](=O)[O-])=C(C)N(C)C(=O)N2C)cc1OC` (stereo not drawn) the Potency was inconclusive [inhibitor, single point]. In the case of `O=C(c1ccc2oc(CCCc3ccccc3)nc2c1)N1CCCCC1CO` (stereo not drawn), the Potency is reported as inconclusive [inhibitor, partial curve, poor fit]. `COc1ccccc1NC(=S)NCCc1c[nH]c2ccccc12` was tested, and the Potency was inconclusive [inhibitor, single point]. `COc1ccc(-c2n[nH]c(C(F)(F)F)c2-c2cc3ccccc3o2)c(O)c1` was tested, and the Potency was inconclusive [inhibitor, partial curve, poor fit]. With `COc1ccc(C2CCCCCN2C(=O)C2CCN(S(=O)(=O)c3cccc(C(C)=O)c3)CC2)cc1` (stereo not drawn) the activity change, negative = inhibition was inconclusive: -37.6% [inhibitor]. `Cc1ccc(S(=O)(=O)Nc2ccc(C(OC(=O)c3ccccc3[N+](=O)[O-])(C(F)(F)F)C(F)(F)F)cc2)cc1` was tested, and the Potency was inconclusive [inhibitor, partial curve, poor fit]. `C=CCc1ccc(OCc2ccc(C(=O)O)o2)c(OC)c1` was tested, and the Potency was inconclusive [inhibitor, partial curve, poor fit]. `Cc1[nH]c2ccccc2c1C(=O)C(C)OC(=O)c1ccc(Cl)nc1` (stereo not drawn) was tested, and the Potency was inconclusive [inhibitor, single point]. `CCc1ccc(C2c3[nH]c4ccccc4c3CCN2C(=O)c2cc[n+]([O-])cc2)cc1` (stereo not drawn) was tested, and the Potency was inconclusive [inhibitor, partial curve]. `COc1c(C)cc(C(=O)C2CCCN(C(=O)c3cccc(-n4cccn4)c3)C2)cc1C` (stereo not drawn) was tested, and the Potency was inconclusive [inhibitor, single point]. `Nc1nc(CSc2ccccc2)nc(N2CCCCC2)n1` was tested, and the Potency was inconclusive [inhibitor, single point]. In the case of `Cc1cccc(N2CCN(C(=O)CN3CCSc4ccccc43)CC2C)c1` (stereo not drawn), the Potency is reported as inconclusive [inhibitor, partial curve, poor fit]. In the case of `COc1ccc(Br)cc1C(C[N+](=O)[O-])c1c(N)n(C)c(=O)n(C)c1=O` (stereo not drawn), the Potency is reported as inconclusive [inhibitor, partial curve, poor fit]. `Cc1ccc(COC(=O)c2nn(-c3ccccc3)nc2N)cc1` was tested, and the Potency was inconclusive [inhibitor, partial curve, poor fit]. With `O=C(NCC(c1cccnc1)N1CCN(c2ccc(F)cc2)CC1)OCc1ccccc1` (stereo not drawn) the Potency was inconclusive [inhibitor, partial curve, poor fit]. In the case of `COc1ccc(CN2CCCC(C(=O)Nc3cccc(-n4cccn4)c3)C2)cc1` (stereo not drawn), the Potency is reported as inconclusive [inhibitor, single point]. For `O=C1CCN(CCc2ccccc2)CCN1[C@H](CSc1ccc(Br)cc1)Cc1ccccc1`, the Potency was inconclusive [inhibitor, partial curve, poor fit]. `COc1ccc(S(=O)(=O)N(C)C)cc1NC(=O)C1CCN(c2ncnc3sc(C)c(C)c23)CC1` was tested, and the Potency was inconclusive [inhibitor, single point]. In the case of `O=C(c1cc(COc2ccc(F)cc2Cl)on1)N1CCCC(c2ccccc2)C1` (stereo not drawn), the Potency is reported as inconclusive [inhibitor, partial curve, poor fit]. In the case of `Cc1cc(NCCO)c2ccccc2n1`, the Potency is reported as “inactive”. In the case of `CCCCC(=O)N1CCN(c2nc3ccc(Cl)cc3s2)CC1`, the Potency is reported as inconclusive [inhibitor, single point]. With `CCOc1ccc2nc(Cl)c(CN(C(C)=O)C3CCCCC3)cc2c1` the Potency was inconclusive [inhibitor, partial curve, poor fit]. For `Cc1ccc(CCC(=O)Nc2ccc(Cl)cc2Cl)o1`, the Potency was inconclusive [inhibitor, single point]. In the case of `O=C(C1=C[C@@H](C2CCCCC2)C[C@@H](OCc2ccc(CO)cc2)O1)N1CCN(Cc2ccc3c(c2)OCO3)CC1`, the Potency is reported as inconclusive [inhibitor, partial curve, poor fit]. In the case of `CCOC(=O)N1CCN(CC(O)COc2ccc(C)cc2C(C)(C)C)CC1` (stereo not drawn), the Potency is reported as inconclusive [inhibitor, partial curve, poor fit]. In the case of `Cc1ccc(NC(=O)C(C)Sc2nc(=O)cc(N)n2-c2cccc(C)c2)cc1` (stereo not drawn), the Potency is reported as “inactive”. `Cc1cccc(S(=O)(=O)N2CCCc3ccccc32)c1` was tested, and the Potency was inconclusive [inhibitor, partial curve, poor fit].
